{
  "source": "PubChem BioAssay AID1259407",
  "about": "(Chemical Carcinogenesis Research Information System (CCRIS), 2018)",
  "test_system": "CCRIS mutagenicity, Ames/micronucleus/aberration tests",
  "test": "CCRIS mutagenicity studies",
  "key": {"[1]": {"conditions": "Test System: AMES SALMONELLA TYPHIMURIUM, Strain/Indicator: TA98, Metabolic Activation: NONE, Method: STANDARD PLATE"}, "[2]": {"conditions": "Test System: AMES SALMONELLA TYPHIMURIUM, Strain/Indicator: TA100, Metabolic Activation: NONE, Method: STANDARD PLATE"}},
  "note": "Not every entry of the source has a single result; some have several. This list holds those alone. The rule behind the calls is not given here. There may be further records. Values given together are repeated measurements in other runs, samples, wells, individuals or studies. A tag in brackets gives the origin of a value. The letters are not those of the source and start again with each entry.",
  "data": [
    {"smiles": "c1ccc2c(c1)cc1ccc3cccc4ncc2c1c34", "values": [
      {"measurement": "mutagenic call", "setting": "[1]", "value": "inactive; negative [study A, 0.1 to 50 µg/plate] and active; positive [study B, 0 to 50 µg/plate]"},
      {"measurement": "mutagenic call", "setting": "[2]", "value": "inactive; negative [study A, 0.1 to 50 µg/plate] and active; positive [study B, 0 to 50 µg/plate]"}
    ]},
    {"smiles": "c1cc2ccc3cccc4ccc(c1)c2c34", "values": [
      {"measurement": "mutagenic call", "setting": "Test System: AMES SALMONELLA TYPHIMURIUM, Strain/Indicator: TA100, Metabolic Activation: RAT, LIVER, S-9, AROCLOR 1254, Method: STANDARD PLATE", "value": "inactive; negative [study A] and active; positive [study B]"}
    ]},
    {"smiles": "COS(C)(=O)=O", "values": [
      {"measurement": "mutagenic call", "setting": "Test System: AMES SALMONELLA TYPHIMURIUM, Strain/Indicator: TA1535, Metabolic Activation: NONE, Method: PREINCUBATION", "value": "active; positive [study A, 0 to 12 µmol/plate] and inactive; negative [study B] and active; positive [study C, 0 to 12 µmol/plate]"}
    ]},
    {"smiles": "O=C1OC(O)C(C(Cl)Cl)=C1Cl", "note": "(stereo unspecified)", "values": [
      {"measurement": "mutagenic call", "setting": "Test System: CHINESE HAMSTER V-79, Strain/Indicator: V-79/6-THIOGUANINE, Metabolic Activation: NONE", "value": "active; positive [0.5 to 5 µg/mL] and inactive; negative [2 to 50 µg/mL]"}
    ]},
    {"smiles": "O=C1C(Cl)=C(Cl)C(=O)c2ccccc21", "values": [
      {"measurement": "mutagenic call", "setting": "Test System: AMES SALMONELLA TYPHIMURIUM, Strain/Indicator: TA100, Metabolic Activation: NONE, Method: PREINCUBATION", "value": "active; positive [study A] and inactive; negative [study B]"}
    ]},
    {"smiles": "Cc1ccc2nc3c(cc2c1)-c1cccc2cccc-3c12", "values": [
      {"measurement": "mutagenic call", "setting": "[1]", "value": "inactive; negative [sample A, 25 to 100 µg/plate] and active; positive [sample B, 2.5 to 10 µg/plate]"},
      {"measurement": "mutagenic call", "setting": "Test System: AMES SALMONELLA TYPHIMURIUM, Strain/Indicator: TA98, Metabolic Activation: RAT, LIVER, S-9, Method: STANDARD PLATE", "value": "inactive; negative [sample A, 25 to 100 µg/plate] and active; positive [sample B, 2.5 to 10 µg/plate]"},
      {"measurement": "mutagenic call", "setting": "[2]", "value": "inactive; negative [sample A, 25 to 100 µg/plate] and active; positive [sample B, 2.5 to 10 µg/plate]"},
      {"measurement": "mutagenic call", "setting": "Test System: AMES SALMONELLA TYPHIMURIUM, Strain/Indicator: TA100, Metabolic Activation: RAT, LIVER, S-9, Method: STANDARD PLATE", "value": "inactive; negative [sample A, 25 to 100 µg/plate] and active; positive [sample B, 2.5 to 10 µg/plate]"}
    ]},
    {"smiles": "O=C1C=Cc2ccccc2C1=O", "values": [
      {"measurement": "mutagenic call", "setting": "Test System: AMES SALMONELLA TYPHIMURIUM, Strain/Indicator: TA102, Metabolic Activation: NONE, Method: PREINCUBATION", "value": "inactive; negative [study A] and active; positive [study B]"}
    ]}
  ]
}
